Patent CN101205255A (SHANGHAI ZHONGXIN GUOJIAN PHAR, dated 2008)

Molecular target: T1, human CD20 antigen on Raji cells (human, UniProt P11836 1-297)
T1 construct: whole, on cells; also called CD20抗原; Raji细胞
T1 sequence (looked up): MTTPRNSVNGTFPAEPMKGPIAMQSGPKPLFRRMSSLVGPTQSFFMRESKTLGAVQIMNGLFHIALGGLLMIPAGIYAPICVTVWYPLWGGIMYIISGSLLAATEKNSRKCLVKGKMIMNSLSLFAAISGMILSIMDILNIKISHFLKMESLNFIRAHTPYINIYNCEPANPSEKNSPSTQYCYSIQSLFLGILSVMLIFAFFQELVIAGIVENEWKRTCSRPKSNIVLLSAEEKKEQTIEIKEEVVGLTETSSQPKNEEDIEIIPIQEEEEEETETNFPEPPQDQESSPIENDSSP
Experiment: dissociation from Raji cells, FITC-labelled antibody 10 μg/ml, 37°C, flow cytometry over time

binding result: binds
B1: anti-CD20 tetravalent antibody C2B8(ScFvHL)4-Fc (Fc fusion)
chain: QVQLQQPGAELVKPGASVKMSCKASGYTFTSYNMHWVKQTPGRGLEWIGAIYPGNGDTSYNQKFKGKATLTADKSSSTAYMQLSSLTSEDSAVYYCARSTYYGGDWYFNVWGAGTTVTVSAGGGGSGGGGSGGGGSQIVLSQSPAILSASPGEKVTMTCRASSSVSYIHWFQQKPGSSPKPWIYATSNLASGVPVRFSGSGSGTSYSLTISRVEAEDAATYYCQQWTSNPPTFGGGTKLEIKRASTGSQVQLQQPGAELVKPGASVKMSCKASGYTFTSYNMHWVKQTPGRGLEWIGAIYPGNGDTSYNQKFKGKATLTADKSSSTAYMQLSSLTSEDSAVYYCARSTYYGGDWYFNVWGAGTTVTVSAGGGGSGGGGSGGGGSQIVLSQSPAILSASPGEKVTMTCRASSSVSYIHWFQQKPGSSPKPWIYATSNLASGVPVRFSGSGSGTSYSLTISRVEAEDAATYYCQQWTSNPPTFGGGTKLEIKREFAAA[human IgG1 Fc with C220P (EU numbers) cut from this listing]
notes: Expressed in CHO cells, Protein A purified; FITC-labelled in some assays; also called C2B8(ScFvHL) 2 Fc (the single chain); C2B8的四价抗体
